Measured values from PubChem BioAssay AID485294 (National Center for Advancing Translational Sciences (NCATS), 2010).
Hit rate of the full screen: of about 370,000 compounds, about 150 (0.041%) were called active. Inconclusive means that the source gave no clear call. Such entries were picked first, then a sample of the others. The call rests on the fitted dose curve; in most records, active means well fitted inhibition curve with a large enough effect; inconclusive means small, poorly fitted or top-dose-only effect; inactive means flat fitted curve, though single readings scatter. Potencies of inconclusive entries are left out as doubtful fits.
Further: nearly all actives have a fitted effect of over 25% in size.
Potency means the concentration at half of the fitted maximal effect; tags describe the fitted curve by direction and shape.
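Wherever activity change, negative = inhibition is given: 0% = no-compound wells and -100% = no-enzyme wells.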

The molecules below were run against Beta-lactamase (Escherichia coli (strain K12)) (UniProt P00811) (assay: qHTS Inhibitors of AmpC Beta-Lactamase (assay with detergent)). Details: AmpC hydrolysis of nitrocefin, absorbance 480 nm, 0.01% Triton; activity change, negative = inhibition: at 114 µM (top of the series).
Chain of UniProt P00811 (P00811 whole entry, looked up): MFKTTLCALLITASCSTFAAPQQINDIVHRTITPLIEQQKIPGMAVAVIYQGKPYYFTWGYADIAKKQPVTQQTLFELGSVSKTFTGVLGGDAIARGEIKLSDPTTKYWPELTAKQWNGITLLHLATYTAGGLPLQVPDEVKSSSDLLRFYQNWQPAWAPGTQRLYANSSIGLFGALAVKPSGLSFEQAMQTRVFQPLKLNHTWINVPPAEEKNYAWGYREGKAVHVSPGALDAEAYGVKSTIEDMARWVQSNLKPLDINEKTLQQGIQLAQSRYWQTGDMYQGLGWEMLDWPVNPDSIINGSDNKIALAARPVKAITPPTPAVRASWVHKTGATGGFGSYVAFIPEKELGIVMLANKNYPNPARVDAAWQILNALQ
In short: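 AmpC (5.3 nM in the dispensed reagent) in 20 mM phosphate pH 7.0 with 0.01% (detergent screen) or 0.0001% Triton X-100 was preincubated with compounds for 15 min at room temperature. Nitrocefin was then added from an 800 uM solution, and hydrolysis was followed at 480 nm.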
For `COc1ccccc1NC(=O)CSc1nnc(-c2ccc(NC(C)=O)cc2)n1C`, the “activity change, negative = inhibition” value was inactive: 2.39%. In the case of `COc1ccc(CNC(=O)CCNC(=O)c2ccc(C(C)(C)C)cc2)cc1OC`, the “activity change, negative = inhibition” value is reported as inactive: -18.5%. In the case of `CCN(Cc1cccs1)C(=O)CN1C(=O)NC(c2ccccc2)(c2ccccc2)C1=O`, the Potency is reported as inconclusive [inhibitor, partial curve, poor fit]. `CCOc1ccc(CCNC(=O)c2cn(C)c3ccc(S(=O)(=O)N4CCCCCC4)cc3c2=O)cc1OCC` was tested, and the “activity change, negative = inhibition” value was inactive: -5.76%. With `NC(=O)[C@@H]1CCCNc2c(I)cc([N+](=O)[O-])cc2C(=O)N[C@@H](CCCN=C(N)N)C(=O)N[C@@H](CCCN=C(N)N)C(=O)N1` the Potency was inconclusive [inhibitor, partial curve]. For `O=C(NC(=S)Nn1cnnc1)c1ccccc1Cl`, the “activity change, negative = inhibition” value was inactive: -0.687%. In the case of `Cc1ccc(OCC(=O)NCCNC(=O)COc2ccc(C)cc2)cc1`, the “activity change, negative = inhibition” value is reported as inactive: 2.63%. In the case of `Cc1cccc(-c2nnc(SCC(=O)Nc3cccc(C(=O)N4CCOCC4)c3)n2C)c1`, the Potency is reported as inconclusive [inhibitor, partial curve]. For `O=C(c1ccccc1)c1ncc(C(F)(F)F)cc1Cl`, the Potency was inconclusive [inhibitor, partial curve, poor fit]. In the case of `N#CCC(=O)Nc1ccc(C(=O)OCC(=O)c2ccc3c(c2)OCCO3)cc1`, the “activity change, negative = inhibition” value is reported as inactive: -6.33%. `CCN(Cc1ccccc1)S(=O)(=O)CCNC(=O)c1ccccc1` was tested, and the Potency was inconclusive [inhibitor, partial curve, poor fit]. With `CC(C)(C)C(=O)Nc1cccc(C(=O)c2cccc(NC(=O)C(C)(C)C)c2)c1` the Potency was inconclusive [inhibitor, full curve, poor fit]. For `N#Cc1ccc(-c2ccc(OCC(=O)NCC(=O)Nc3ccc(F)c(F)c3F)cc2)cc1`, the Potency was inconclusive [inhibitor, full curve, poor fit]. For `Cc1ccc(-c2cc(C(=O)NCc3ccco3)c3ccccc3n2)o1`, the Potency was inconclusive [inhibitor, full curve]. For `O=C(CSc1nnc(CNc2ccc(F)cc2)n1Cc1ccccc1)NCc1ccccc1`, the Potency was inconclusive [inhibitor, partial curve, poor fit]. For `CCC(=O)Nc1ccc(NCc2ccc(-c3ccccc3)cc2)cc1`, the Potency was inconclusive [inhibitor, full curve]. With `COc1ccc(N(CC(=O)Nc2cccc([N+](=O)[O-])c2C)S(C)(=O)=O)cc1OC` the Potency was inconclusive [inhibitor, full curve, poor fit]. `COC(=O)c1ccc(Cn2nnc3c(=O)[nH]c(C4CCCN(S(=O)(=O)c5ccc(C)cc5)C4)nc32)cc1` (stereo not drawn) was tested, and the “activity change, negative = inhibition” value was inactive: -8.41%.
